Test results: patent publication US20120183541A1 (Five Prime, published 2012)
Values belong to the binder of their own block, whether it stands above or below them.

Columns and labels:
[1] = target: T1, FGF2 (UniProt P09038 partial chain); experiment: SPR (Biacore), Fc fusion captured on Protein A chip, FGF2 injected, 50 uM heparin, 1:1 model
T1 construct: Commercial protein
Experimental: (§1) The FGF2 and FGF19 ligand binding affinity and kinetics of R4Mut4 and five different FGFR4 ECD variant-Fc fusion proteins (collectively “FGFR4 ECD proteins”) were determined using Biacore® X surface plasmon resonance (SPR) technology (Uppsala, Sweden). FGF2 was selected because it is broadly expressed in adult tissue. FGF19 was selected because, in the absence of other protein cofactors, it binds specifically to FGFR4. Briefly, Protein-A was covalently linked to a CM5 chip, according to manufacturer's instructions. The FGFR4 ECD proteins were bound to the chip by interaction of the Fc domain with protein A. The FGFR4 ECD proteins were captured onto flow channels 2-4, while channel 1 served as a reference. FGF2 was purchased from Peprotech (Rocky Hill, N.J.) and FGF19 was purchased from R&D Systems. Each FGF ligand was injected at 5 concentrations (100 nM, 25 nM, 6.25 nM, 1.56 nM, and 0 nM) for 2 minutes and dissociation was monitored for 4 minutes. 50 uM Heparin was included in the running buffer. The association constant, dissociation constant, affinity, and binding capacity of each of the R4 proteins for FGF2 and FGF19 was calculated using the Biacore T100 Evaluation software package using the 1:1 binding model.

[2] = target: T2, FGF19 (UniProt O95750); experiment: SPR (Biacore), against parental R4Mut4
T2 construct: Commercial protein
Experimental: The FGF2 and FGF19 ligand binding affinity and kinetics of R4Mut4 and five different FGFR4 ECD variant-Fc fusion proteins (collectively “FGFR4 ECD proteins”) were determined using Biacore® X surface plasmon resonance (SPR) technology (Uppsala, Sweden). FGF2 was selected because it is broadly expressed in adult tissue. FGF19 was selected because, in the absence of other protein cofactors, it binds specifically to FGFR4. Briefly, Protein-A was covalently linked to a CM5 chip, according to manufacturer's instructions. […] Each FGF ligand was injected at 5 concentrations (100 nM, 25 nM, 6.25 nM, 1.56 nM, and 0 nM) for 2 minutes and dissociation was monitored for 4 minutes. […] The association constant, dissociation constant, affinity, and binding capacity of each of the R4 proteins for FGF2 and FGF19 was calculated using the Biacore T100 Evaluation software package using the 1:1 binding model.
In addition, FGFR4 2Ig ECD-Fc fusion proteins in which a portion of the D1 domain was deleted, in either the presence (R4(2Ig+L); SEQ ID NO: 55) or absence (R4(2Ig-L); SEQ ID NO: 56) of the D1-D2 linker region, bound FGF2 with an affinity equal to or greater than the parental R4Mut4 in that experiment, as measured by the equilibrium dissociation constant (KD). […]

[3] = target: T2, FGF19; experiment: SPR (Biacore), Fc fusion captured on Protein A chip, FGF19 injected, 50 uM heparin, 1:1 model
Experimental: as §1

T2 sequence (O95750 25-216 limits assumed): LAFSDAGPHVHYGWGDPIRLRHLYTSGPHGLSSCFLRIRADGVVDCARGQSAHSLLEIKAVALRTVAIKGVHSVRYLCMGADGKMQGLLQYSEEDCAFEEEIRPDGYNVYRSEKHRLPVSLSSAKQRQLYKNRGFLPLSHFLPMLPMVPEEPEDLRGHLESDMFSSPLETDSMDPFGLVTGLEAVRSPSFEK
Sequence of FGF2 (P09038 135-288 limits assumed): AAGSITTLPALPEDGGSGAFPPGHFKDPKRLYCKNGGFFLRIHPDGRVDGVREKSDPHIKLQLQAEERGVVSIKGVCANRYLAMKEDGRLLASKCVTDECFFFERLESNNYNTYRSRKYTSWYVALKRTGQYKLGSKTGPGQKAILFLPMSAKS

B2: FGFR4ECD(ABMut2: delta17)-Fc (Fc fusion)
chain: LEASEEVELEPCLAPSLEQQEQELTVALGQPVRLCCGRAERGGHWYKEGSRLAPAGRVRGWRGRLEIASFLPEDAGRYLCLARGSMIVLQNLTLITGDALPSSEDDDDDDDSSSEEKETDNTKPNQAPYWTHPQRMEKKLHAVPAGNTVKFRCPAAGNPTPTIRWLKDGQAFHGENRIGGIRLRHQHWSLVMESVVPSDRGTYTCLVENAVGSIRYNYLLDVLERSPHRPILQAGLPANTTAVVGSDVELLCKVYSDAQPHIQWLKHIVINGSSFGADGFPYVQVLKTADINSSEVEVLYLRNVSAEDAGEYTCLAGNSIGLSYQSAWLTVLP[no letters for human IgG1 Fc with changes]
notes: The entry is the whole ECD-Fc fusion; also called FGFR4 ECD Δ17 R1 exon 4 chimera + Fc
Kd [1]: 2.26 nM
koff [1]: 0.00026 s⁻¹
kon [1]: 114000 M⁻¹ s⁻¹
Kd [3]: 2.58 nM
koff [3]: 0.00064 s⁻¹
kon [3]: 250000 M⁻¹ s⁻¹

B4: FGFR4ECD(ABMut1: delta17)-Fc (Fc fusion)
chain: LEASEEVELEPCLAPSLEQQEQELTVALGQPVRLCCGRAERGGHWYKEGSRLAPAGRVRGWRGRLEIASFLPEDAGRYLCLARGSMIVLQNLTLITGDALPSSEDDDDDDDSSSEEKETDNTKPNPVAPYWTHPQRMEKKLHAVPAGNTVKFRCPAAGNPTPTIRWLKDGQAFHGENRIGGIRLRHQHWSLVMESVVPSDRGTYTCLVENAVGSIRYNYLLDVLERSPHRPILQAGLPANTTAVVGSDVELLCKVYSDAQPHIQWLKHIVINGSSFGADGFPYVQVLKTADINSSEVEVLYLRNVSAEDAGEYTCLAGNSIGLSYQSAWLTVLP[no letters for human IgG1 Fc with changes]
notes: The entry is the whole ECD-Fc fusion; also called FGFR4 ECD Δ17 R1 D1-D2 linker chimera + Fc
Kd [1]: 1.7 nM
koff [1]: 0.00027 s⁻¹
kon [1]: 160000 M⁻¹ s⁻¹
Kd [3]: 3.18 nM
koff [3]: 0.00068 s⁻¹
kon [3]: 213000 M⁻¹ s⁻¹

B5: FGFR4ECD(2Ig + Linker)-GS linker-Fc (Fc fusion)
chain: LEASEEVELEDSLTSSNDDEDPKSHRDPSNRHSYPQQAPYWTHPQRMEKKLHAVPAGNTVKFRCPAAGNPTPTIRWLKDGQAFHGENRIGGIRLRHQHWSLVMESVVPSDRGTYTCLVENAVGSIRYNYLLDVLERSPHRPILQAGLPANTTAVVGSDVELLCKVYSDAQPHIQWLKHIVINGSSFGADGFPYVQVLKTADINSSEVEVLYLRNVSAEDAGEYTCLAGNSIGLSYQSAWLTVLPEEDPTWTAAAPEARYTDGS[no letters for human IgG1 Fc with changes]
notes: The entry is the whole ECD-GS-Fc fusion; also called R4(2Ig + L); R4(2Ig+L)
Kd [1]: 2.54 nM
koff [1]: 0.00079 s⁻¹
kon [1]: 313000 M⁻¹ s⁻¹
fold reduction of binding against parental R4Mut4 [2]: ~10 fold
Kd [3]: 34.3 nM
koff [3]: 0.00276 s⁻¹
kon [3]: 80000 M⁻¹ s⁻¹

Further binders by falling Kd [1], results first:

Kd [1]: 2.4 nM
koff [1]: 0.00073 s⁻¹
kon [1]: 306000 M⁻¹ s⁻¹
fold reduction of binding against parental R4Mut4 [2]: ~5 fold
Kd [3]: 18.1 nM
koff [3]: 0.00214 s⁻¹
kon [3]: 118000 M⁻¹ s⁻¹
B1: FGFR4ECD(2Ig-Linker)-GS linker Fc (Fc fusion)
chain: LEASEEVELEAPYWTHPQRMEKKLHAVPAGNTVKFRCPAAGNPTPTIRWLKDGQAFHGENRIGGIRLRHQHWSLVMESVVPSDRGTYTCLVENAVGSIRYNYLLDVLERSPHRPILQAGLPANTTAVVGSDVELLCKVYSDAQPHIQWLKHIVINGSSFGADGFPYVQVLKTADINSSEVEVLYLRNVSAEDAGEYTCLAGNSIGLSYQSAWLTVLPEEDPTWTAAAPEARYTDGS[no letters for human IgG1 Fc with changes]
notes: The entry is the whole ECD-GS-Fc fusion; also called R4(2Ig-L); R4(2Ig - L)

Kd [1]: 1.44 nM
koff [1]: 0.00035 s⁻¹
kon [1]: 242000 M⁻¹ s⁻¹
Kd [3]: 3.5 nM
koff [3]: 0.00074 s⁻¹
kon [3]: 211000 M⁻¹ s⁻¹
B3: FGFR4ECD(ABMut3: delta17)-Fc (Fc fusion)
chain: LEASEEVELEPCLAPSLEQQEQELTVALGQPVRLCCGRAERGGHWYKEGSRLAPAGRVRGWRGRLEIASFLPEDAGRYLCLARGSMIVLQNLTLITGDSLTSSEDDDDDDDSSSEEPSNRHSYPQQAPYWTHPQRMEKKLHAVPAGNTVKFRCPAAGNPTPTIRWLKDGQAFHGENRIGGIRLRHQHWSLVMESVVPSDRGTYTCLVENAVGSIRYNYLLDVLERSPHRPILQAGLPANTTAVVGSDVELLCKVYSDAQPHIQWLKHIVINGSSFGADGFPYVQVLKTADINSSEVEVLYLRNVSAEDAGEYTCLAGNSIGLSYQSAWLTVLP[no letters for human IgG1 Fc with changes]
notes: The entry is the whole ECD-Fc fusion
